Sequences with one replicate were seen in a single cluster, so their values are uncertain.
System: ATP
Assay: switch fluorescence ratio, 500 uM ATP over buffer (Cy3 cluster intensity, sum of 5 cycles each) (fold (ratio)); higher = stronger signal-on switching upon ATP binding; sequences stand for … in TCGTCGGCAGCGTCAGATGTGTATAAGAGACAGTTTTTTTTTTTTTTTTTTTTTTTTT…TC
Settings: aptamer strand: ATP DNA aptamer (quencher-CACCTGGGGGAGTATTGCGGAGGAAGG + anchor), 100 nM annealed; ATP concentration: 500 uM; one replicate
In short: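 Clusters carrying Cy3-labelled switching strands on a modified Illumina MiSeq flow-cell were annealed to 100 nM quencher-labelled ATP aptamer and imaged in selection buffer. They were imaged again after 15 min with 500 uM ATP at 22 °C, over five buffer/ATP cycles with NaOH stripping and re-annealing in between. For each cluster, the fluorescence ratio is the summed Cy3 intensity of the target cycles divided by that of the buffer cycles, averaged per switch-domain sequence. Clusters outside 100-1000 RFU were left out.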
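Note: ATP exposure 15 min at 22 °C before imaging.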

Sequence: AGTTCCTGTG
- switch fluorescence ratio: 1.02

Sequence: TTCAGTGACG
- switch fluorescence ratio: 1.01

Sequence: AAGGCACGAT
- switch fluorescence ratio: 1.04

Sequence: ACCCCCATGT
- switch fluorescence ratio: 1.68

Sequence: AGATAGTACC
- switch fluorescence ratio: 1.04

Sequence: GTCACGTCTA
- switch fluorescence ratio: 0.99

Sequence: TGGCCTTTAT
- switch fluorescence ratio: 0.995

Sequence: CGCCGAACTT
- switch fluorescence ratio: 1.02

Sequence: TGATAAGCGG
- switch fluorescence ratio: 1.01

Sequence: GTTCTAAGCC
- switch fluorescence ratio: 0.984

Sequence: CGTCCATGCA
- switch fluorescence ratio: 1.32

Sequence: CCAGGAATTG
- switch fluorescence ratio: 1.02

Sequence: CAATTACTT
- switch fluorescence ratio: 1.09

Sequence: CTAAGACTTT
- switch fluorescence ratio: 0.978

Sequence: AAAGTCTTG
- switch fluorescence ratio: 0.975

Sequence: AATAGGCGTT
- switch fluorescence ratio: 1.01

Sequence: TGGCCTAGGA
- switch fluorescence ratio: 1.02

Sequence: GTCCCGTGCC
- switch fluorescence ratio: 1.07

Sequence: TTTAAGAACA
- switch fluorescence ratio: 1

Sequence: GGGTCTAAGT
- switch fluorescence ratio: 1.01

Sequence: ACCAGTCGCT
- switch fluorescence ratio: 0.984

Sequence: ATCCCCGTAT
- switch fluorescence ratio: 1.08

Sequence: GAGACAGATC
- switch fluorescence ratio: 1.03

Sequence: CTAAGAAAGT
- switch fluorescence ratio: 0.965

Sequence: TAGTGAAAAG
- switch fluorescence ratio: 1

Sequence: AATTGAGCAG
- switch fluorescence ratio: 0.97

Sequence: GCGTCATTGG
- switch fluorescence ratio: 1.04

Sequence: GCGGGTTGT
- switch fluorescence ratio: 1.06

Sequence: AGACCGTGAC
- switch fluorescence ratio: 1.15

Sequence: GGCTAACTAG
- switch fluorescence ratio: 0.97

Sequence: CACGCACACC
- switch fluorescence ratio: 1.51

Sequence: GAGGGGTCCC
- switch fluorescence ratio: 0.947

Sequence: TAAAGTTGG
- switch fluorescence ratio: 0.992

Sequence: GCGATCACGG
- switch fluorescence ratio: 1.05

Sequence: GTCGCAACTA
- switch fluorescence ratio: 1.12

Sequence: AAGATCTATT
- switch fluorescence ratio: 0.978

Sequence: TGGGCGTGCT
- switch fluorescence ratio: 1

Sequence: AAGTAGGGC
- switch fluorescence ratio: 1.03

Sequence: CCCAAGATCT
- switch fluorescence ratio: 1.05

Sequence: GAAGACAGGG
- switch fluorescence ratio: 1.01

Sequence: TCTTAACATG
- switch fluorescence ratio: 0.956

Sequence: ATGGAGGAAG
- switch fluorescence ratio: 1.01

Sequence: CGCGGCTGGA
- switch fluorescence ratio: 1

Sequence: ACCTTAGTGG
- switch fluorescence ratio: 1.01

Sequence: AGTAAACAAG
- switch fluorescence ratio: 1.02

Sequence: TCAGCCCGGT
- switch fluorescence ratio: 1.06

Sequence: GCATTCTCAG
- switch fluorescence ratio: 0.994

Sequence: GAACCAAGTA
- switch fluorescence ratio: 0.985

Sequence: ACCTAGAAGT
- switch fluorescence ratio: 0.987

Sequence: CCGGGGCAGT
- switch fluorescence ratio: 4.37

Sequence: GCGATTAGGT
- switch fluorescence ratio: 1.02

Sequence: TAGGAAGCTT
- switch fluorescence ratio: 1.06

Sequence: TGTGATCTAC
- switch fluorescence ratio: 1.05

Sequence: CCTGAGTAA
- switch fluorescence ratio: 1.7

Sequence: ATCACGACTC
- switch fluorescence ratio: 1.01

Sequence: CTTAAGAAAA
- switch fluorescence ratio: 1.05

Sequence: TGTGACAGAC
- switch fluorescence ratio: 1.11

Sequence: CGCGATTCTT
- switch fluorescence ratio: 1.05

Sequence: GTCGACTTGT
- switch fluorescence ratio: 0.959

Sequence: CCTTACTCTA
- switch fluorescence ratio: 1.69

Sequence: ATGTTTGGCA
- switch fluorescence ratio: 1.02

Sequence: GCGCGACTCG
- switch fluorescence ratio: 1.05

Sequence: ACAACACAAA
- switch fluorescence ratio: 1.2

Sequence: TTTTTCCCTC
- switch fluorescence ratio: 1.04

Sequence: ATCGTCGTCA
- switch fluorescence ratio: 0.967

Sequence: TTGTCTCGTT
- switch fluorescence ratio: 0.984

Sequence: GTTCGGCGGA
- switch fluorescence ratio: 0.961

Sequence: CACCAAGGGT
- switch fluorescence ratio: 0.984

Sequence: TACCTTTA
- switch fluorescence ratio: 1.06

Sequence: ATATTAAAGC
- switch fluorescence ratio: 0.967

Sequence: CCTCATGGTC
- switch fluorescence ratio: 1.17

Sequence: GCCGTGAAAA
- switch fluorescence ratio: 1.01

Sequence: CTCCGTTTTG
- switch fluorescence ratio: 2.25

Sequence: TTTTAGGT
- switch fluorescence ratio: 0.93

Sequence: GGCTAAGTTG
- switch fluorescence ratio: 1.02

Sequence: GGCTTCCGTT
- switch fluorescence ratio: 1.1

Sequence: GGCGCGTCC
- switch fluorescence ratio: 0.993

Sequence: GCTTTATACT
- switch fluorescence ratio: 1.06

Sequence: TCAGGCATGG
- switch fluorescence ratio: 0.954

Sequence: TTCAATTGCT
- switch fluorescence ratio: 0.918

Sequence: CTCTTCGAG
- switch fluorescence ratio: 1.02

Sequence: ATGGTCGGGT
- switch fluorescence ratio: 1.04

Sequence: AGGAGGCGTG
- switch fluorescence ratio: 0.985

Sequence: TGTTGGCTTC
- switch fluorescence ratio: 1.03

Sequence: CGGTGAGCTG
- switch fluorescence ratio: 1
